# Results: PubChem BioAssay AID588591 (National Center for Advancing Translational Sciences (NCATS), 2011)
# About 4,700 (1.2%) of roughly 390,000 compounds were called active. The inconclusive results got no clear call from the source; some entries with a clear call stand among them for comparison. The call rests on the fitted dose curve; in most records, active means well fitted inhibition curve with a large enough effect; inconclusive means small, poorly fitted or top-dose-only effect, or another doubt; inactive means no such curve, though single readings can be large or run the other way. Where the call is inconclusive, the potency comes from a doubtful curve fit.
# Target: DNA polymerase eta (Homo sapiens) (UniProt Q9Y253)
# Experiment: qHTS for Inhibitors of Polymerase Eta
# Conditions: recombinant Pol eta, fluorescent DNA replication assay; series mostly up to 114 µM; activity change, negative = inhibition: at the top concentration
# In short: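 Pol eta at 10 nM preincubated with compounds 15 min at room temperature; reaction started with fluorescent substrate (50 nM final) and read kinetically at 0 and 10 min.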
# On the % scale 0 is the no-effect control and ±100 the full control effect; potency means the concentration at half of the fitted maximal effect; tags describe the fitted curve by direction and shape.
# Sequence of UniProt Q9Y253 (Q9Y253 whole entry, looked up): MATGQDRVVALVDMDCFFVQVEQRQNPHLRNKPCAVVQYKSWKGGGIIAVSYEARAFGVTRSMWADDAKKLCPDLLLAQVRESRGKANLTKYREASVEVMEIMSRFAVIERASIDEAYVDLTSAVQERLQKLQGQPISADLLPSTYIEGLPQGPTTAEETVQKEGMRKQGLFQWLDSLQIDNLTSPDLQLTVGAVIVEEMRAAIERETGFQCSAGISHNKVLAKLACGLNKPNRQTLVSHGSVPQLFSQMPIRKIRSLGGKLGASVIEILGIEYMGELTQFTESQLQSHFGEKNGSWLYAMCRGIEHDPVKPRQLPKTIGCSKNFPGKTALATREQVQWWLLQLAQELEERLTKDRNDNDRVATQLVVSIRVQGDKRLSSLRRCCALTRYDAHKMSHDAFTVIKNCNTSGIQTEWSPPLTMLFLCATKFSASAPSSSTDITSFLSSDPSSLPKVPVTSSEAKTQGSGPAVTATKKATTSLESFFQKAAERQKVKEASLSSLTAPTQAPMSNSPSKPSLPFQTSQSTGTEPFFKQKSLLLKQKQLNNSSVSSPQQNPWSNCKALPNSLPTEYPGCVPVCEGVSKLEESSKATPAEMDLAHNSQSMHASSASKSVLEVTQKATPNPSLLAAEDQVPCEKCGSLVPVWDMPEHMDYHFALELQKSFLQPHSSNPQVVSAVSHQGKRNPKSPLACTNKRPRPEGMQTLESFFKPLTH
SMILES,Potency,"activity change, negative = inhibition"
CCCCCCCCCCCCCCCC[N+](C)(C)CC,active: 89.1 µM,–
CC(C)(C)c1ccc(OCC(O)CNC(=O)c2ccccc2C(=O)O)cc1 (centres undefined),"inconclusive: 89.1 µM [inhibitor, partial curve, poor fit]",–
O=C(OC1CCOC1=O)c1ccc(Cl)c(S(=O)(=O)N2CCOCC2)c1 (centres undefined),active: 39.8 µM,–
C[C@@H]1CN([C@H](C)CO)C(=O)CCCn2cc(nn2)CO[C@H]1CN(C)C(=O)Nc1ccccc1F,–,inactive: -0.209%
Cc1c(S(=O)(=O)N(C)C2CCCCC2)c(=O)n(C)c(=O)n1C,"inconclusive: 22.4 µM [inhibitor, partial curve, poor fit]",–
CC(/C=N/NC(=O)CSc1nnc(SCc2ccccc2)s1)=C\c1ccco1,"inconclusive: 17.8 µM [inhibitor, partial curve]",–
COc1cccc(COC(=O)c2ccc3c(=O)n4c(nc3c2)CCC4)c1OC,"inconclusive: 17.8 µM [inhibitor, full curve, poor fit]",–
N#Cc1c(-c2ccc(Cl)cc2Cl)nc2n(c1=O)CCS2,"inconclusive: 31.6 µM [inhibitor, full curve]",–
C=C1C(=O)OC2CC1C(O)CC(C)=CCCC(C)=CC(O)CC2C (centres undefined),"inconclusive: 15.8 µM [inhibitor, partial curve, poor fit]",–
Cc1cc(C)nc(NS(=O)(=O)c2ccc(NC(=O)CN3C(=O)S/C(=C\c4ccccc4)C3=O)cc2)n1,–,inactive: 0.188%
C/C(=N\NC(=O)CCC(=O)Nc1ccc(C)c(C)c1)C1CC1,"inconclusive: 89.1 µM [inhibitor, partial curve, poor fit]",–
Cc1cc(C)cc(NC(=O)CSc2nc3ccccc3nc2N2CCCC2)c1,"inconclusive: 3.98 µM [inhibitor, full curve, poor fit]",–
O=c1/c(=C/c2ccccn2)sc2nc3ccccc3n12,"inconclusive: 11.2 µM [inhibitor, full curve, poor fit]",–
CC1CCc2sc(C(=O)NNC(=S)NCC3CCCO3)cc2C1 (centres undefined),–,inactive: -12.7%
COc1ccc(-c2noc(CCC(=O)Nc3cc(OC)ccc3OC)n2)cc1,"inconclusive: 50.1 µM [inhibitor, partial curve, poor fit]",–
COc1ccc(CCNC(=O)c2nnn(CC(=O)Nc3ccccc3C)c2N)cc1OC,"inconclusive: 39.8 µM [inhibitor, single point]",–
CCOC(=O)c1c(C)[nH]c(C)c1S(=O)(=O)NCC(=O)NCc1ccccc1Cl,–,inactive: -12.9%
CC(C)(C)C(=O)Nc1ccc2nc(SCC(=O)N3CCc4ccccc43)sc2c1,–,inactive: -19.2%
Cc1ccccc1C(=O)NCC(=O)OC(C)C(=O)Nc1cccc(S(=O)(=O)N2CCOCC2)c1 (centres undefined),–,inactive: -21.9%
COc1ccc2c(c1)CCC(C)N2C(=O)C(=O)c1c[nH]c2ccccc12 (centres undefined),"inconclusive: 89.1 µM [inhibitor, single point]",–
O=C1N/C(=N\S(=O)(=O)Cc2ccccc2)S/C1=C/c1cccc([N+](=O)[O-])c1,active: 50.1 µM,–
CCOc1ccc(CNC(=O)c2cccn2-c2nnc(N3CCCCC3)s2)cc1OC,–,inactive: -2.41%

SMILES,Potency,"activity change, negative = inhibition"
CCc1ccc(C2CC(c3ccccc3)Nc3nc(N)nn32)cc1 (centres undefined),"inconclusive: 100 µM [inhibitor, partial curve, poor fit]",–
O=C(COc1ccc2oc(-c3ccccc3)cc(=O)c2c1)NCc1ccco1,"inconclusive: 15.8 µM [inhibitor, partial curve, poor fit]",–
CCc1cccc(C)c1NC(=O)C1CCN(S(=O)(=O)c2cccc3nonc23)CC1,–,inactive: -0.708%
O=C(Nc1cccc2nsnc12)c1cccnc1,"inconclusive: 20 µM [inhibitor, single point]",–
O=C(/C=C/c1ccco1)N1CCN(S(=O)(=O)c2cccs2)CC1,"inconclusive: 79.4 µM [inhibitor, single point]",–
Cc1ccc(S(=O)(=O)N2CCCOC2CNC(=O)C(=O)NCCc2c[nH]c3ccccc23)cc1 (centres undefined),"inconclusive: 89.1 µM [inhibitor, partial curve, poor fit]",–
Cc1c(C(=O)Nc2ccccc2)sc2nc[nH]c(=O)c12,"inconclusive: 25.1 µM [inhibitor, partial curve, poor fit]",–
Cc1c(-c2ccccc2)nc2ccccc2c1C(=O)OCC(=O)Nc1ncc(C(F)(F)F)cc1Cl,"inconclusive: 35.5 µM [inhibitor, partial curve, poor fit]",–
Cc1ccc(CN2C(=O)N/C(=C\c3ccc(-c4ccc(C(=O)O)cc4C)o3)C2=O)cc1,active: 17.8 µM,–
Cc1ccc2c(c1)COc1c3ccc(C(=O)O)cc3nn1-2,"inconclusive: 25.1 µM [inhibitor, full curve]",–
O=C(O)/C(=C\c1cccc(F)c1)c1ccc(S(=O)(=O)N2CCCCC2)s1,"inconclusive: 39.8 µM [inhibitor, partial curve]",–
Cc1cc(N)n(-c2ccc(C)c(C)c2)n1,–,inactive: -3.17%
Cc1ccc(-n2c(C)cc(/C=N/NC(=O)CN(c3ccc(C)cc3C)S(C)(=O)=O)c2C)cc1,"inconclusive: 79.4 µM [inhibitor, partial curve, poor fit]",–
Cc1c(OCC(F)(F)F)ccnc1CS(=O)c1nc2ccccc2[nH]1 (centres undefined),inactive,–
COc1cccc2sc(NN)nc12,–,inactive: 1.84%
O=C(Cc1ccc(-n2cccc2)cc1)N1CCN(c2ccccc2F)CC1,"inconclusive: 28.2 µM [inhibitor, partial curve, poor fit]",–
Cc1ccccc1-n1c(SCc2ccccn2)nc2n[nH]c(C)c2c1=N,"inconclusive: 11.2 µM [inhibitor, partial curve, poor fit]",–
CCOC(=O)C1CCN(C(=O)/C=C/c2ccc3c(c2)OCO3)CC1,–,inactive: -20.7%
COc1c2ccc(OCC/C(C)=C/C(=O)C=C(C)C)cc2nc2occc12,active: 44.7 µM,–
O=C(O)/C=C/c1cccnc1,–,inactive: -11.4%
CCn1c(NC(C)=O)nc2ccccc21,"inconclusive: 0.794 µM [inhibitor, partial curve, poor fit]",–
C#CCOc1ccc(/C=C2/C(=O)NN(c3ccccc3)C2=O)cc1OC,"inconclusive: 20 µM [inhibitor, partial curve, poor fit]",–
